# Test system: natural IgM
# Test: ELISA: inhibition of natural IgM (Nab) binding to W-determinants by indole compounds
# Conditions: in vitro; compound added into the incubation medium
structure (smiles),measurement,value
O=C(O)CCc1nc2ccccc2[nH]1 [2-Benzimidazolepropionic acid],inhibition of IgM binding to W-determinants,inhibited IgM binding to W determinants to a significant degree

# — patent US20100004180A1, “Agents for the Detection and Modulation of B-Cells and Antibodies” (priority 2008, published 2010)
